Data: the supplement of paper PMC12645437, “Orthogonal IMiD-Degron Pairs Induce Selective Protein Degradation in Cells” (ACS Chemical Biology, 2025)
Some of the results follow.

B1: Q9UKT9 (peptide)
chain: LHCEICGFPCTQKGNLLRHIKL
B2: Q9UKT9 (peptide)
chain: FFCEICGHRFTQKGNLLRHIKL
B3: Q9UKT9 (peptide)
chain: FKCSVCGHTFTQKGNLLRHIKL
B4: Q9UKT9 (peptide)
chain: FHCDICGAVFTQKGNLLRHIKL
B5: Q9UKT9 (peptide)
chain: FHCDICGAWFTQKGNLLRHIKL
B6: Q9UKT9 (peptide)
chain: LYCEICGFYCTQKGNLLRHIKL
B7: Q9UKT9 (peptide)
chain: FQCEQCGASFTQKGNLLRHIKL
B8: Q9UKT9 (peptide)
chain: LACNQCGFWCTQKGNLLRHIKL
B9: Q9UKT9 (peptide)
chain: FLCEICGACFTQKGNLLRHIKL
B10: Q9UKT9 (peptide)
chain: FGCSVCGHNFTQKGNLLRHIKL
B11: Q9UKT9 (peptide)
chain: FFCNQCGAVFTQKGNLLRHIKL
B12: Q9UKT9 (peptide)
chain: FGCDICGANFTQKGNLLRHIKL
B13: Q9UKT9 (peptide)
chain: LKCNQCGFFCTQKGNLLRHIKL
B14: Q9UKT9 (peptide)
chain: FVCEICGRTFTQKGNLLRHIKL
B15: Q9UKT9 (peptide)
chain: FVCNQCGRDFTQKGNLLRHIKL
B16: Q9UKT9 (peptide)
chain: FACEICGATFTQKGNLLRHIKL
B17: Q9UKT9 (peptide)
chain: FGCPICGHNFTQKGNLLRHIKL
B18: Q9UKT9 (peptide)
chain: FCCPQCGAAFTQKGNLLRHIKL
B19: Q9UKT9 (peptide)
chain: LTCNQCGFMCTQKGNLLRHIKL
B20: Q9UKT9 (peptide)
chain: FLCNQCGAPFTQKGNLLRHIKL
B21: Q9UKT9 (peptide)
chain: LLCPICGFGCTQKGNLLRHIKL
B22: Q9UKT9 (peptide)
chain: FACEQCGAFFTQKGNLLRHIKL
B23: Q9UKT9 (peptide)
chain: FMCPVCGAKFTQKGNLLRHIKL
B24: Q9UKT9 (peptide)
chain: FWCNQCGHYFTQKGNLLRHIKL
B25: Q9UKT9 (peptide)
chain: FICEVCGAIFTQKGNLLRHIKL
B26: Q9UKT9 (peptide)
chain: FECDICGAWFTQKGNLLRHIKL
B27: Q9UKT9 (peptide)
chain: FSCPQCGADFTQKGNLLRHIKL
B28: Q9UKT9 (peptide)
chain: LNCEICGFFCTQKGNLLRHIKL
B29: Q9UKT9 (peptide)
chain: LDCEICGFICTQKGNLLRHIKL
B30: Q9UKT9 (peptide)
chain: FGCEICGAGFTQKGNLLRHIKL
B31: Q9UKT9 (peptide)
chain: FHCDQCGAVFTQKGNLLRHIKL
B32: Q9UKT9 (peptide)
chain: FYCNICGAHFTQKGNLLRHIKL
B33: Q9UKT9 (peptide)
chain: FKCPICGAAFTQKGNLLRHIKL
B34: Q9UKT9 (peptide)
chain: FMCEICGARFTQKGNLLRHIKL
B35: Q9UKT9 (peptide)
chain: FMCNQCGHNFTQKGNLLRHIKL
B36: Q9UKT9 (peptide)
chain: FHCEVCGADFTQKGNLLRHIKL
B37: Q9UKT9 (peptide)
chain: FACNQCGHRFTQKGNLLRHIKL
B38: Q9UKT9 (peptide)
chain: FFCPICGHHFTQKGNLLRHIKL
B39: Q9UKT9 (peptide)
chain: FRCNICGAHFTQKGNLLRHIKL
B40: Q9UKT9 (peptide)
chain: FSCNQCGAGFTQKGNLLRHIKL
B41: Q9UKT9 (peptide)
chain: FTCPQCGACFTQKGNLLRHIKL
B42: Q9UKT9 (peptide)
chain: FYCEICGAHFTQKGNLLRHIKL
B43: Q9UKT9 (peptide)
chain: FCCNQCGAYFTQKGNLLRHIKL
B44: Q9UKT9 (peptide)
chain: FACDQCGAKFTQKGNLLRHIKL
B45: Q9UKT9 (peptide)
chain: FICDQCGAAFTQKGNLLRHIKL
B46: Q9UKT9 (peptide)
chain: FSCEVCGAQFTQKGNLLRHIKL
B47: Q9UKT9 (peptide)
chain: FYCDQCGAGFTQKGNLLRHIKL
B48: Q9UKT9 (peptide)
chain: FECPQCGAMFTQKGNLLRHIKL
B49: Q9UKT9 (peptide)
chain: FGCEICGRFFTQKGNLLRHIKL
B50: Q9UKT9 (peptide)
chain: FWCEICGHGFTQKGNLLRHIKL

Target: no compound (DMSO)
Test: log2 fold change of degron read counts, EGFP-low vs EGFP+ sorted cells; higher = lower degron-EGFP level without compound (poor expression or instability)
Conditions: compound: DMSO control; 18 h
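Further: jurkat cells carrying a lentiviral library of mutant zinc finger degrons fused to EGFP plus mCherry, mCherry+ cells FACS sorted, degron abundance counted by next-generation sequencing.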

Sequence | log2 fold change of degron read counts
B1 | -0.147
B2 | -1.02
B3 | -0.703
B4 | -1.2
B5 | -0.256
B6 | 1.42
B7 | -1.35
B8 | 1.87
B9 | -1.96
B10 | 0.239
B11 | 0.184
B12 | -1.81
B13 | 1.26
B14 | -1.22
B15 | -1.08
B16 | -3.61
B17 | -0.167
B18 | -0.456
B19 | 0.437
B20 | -0.222
B21 | 0.929
B22 | -0.257
B23 | -1.02
B24 | 1.58
B25 | -1.76

Sequence | log2 fold change of degron read counts
B26 | -1.69
B27 | -1.87
B28 | 1.83
B29 | 1.61
B30 | -1.02
B31 | -1.45
B32 | 0.248
B33 | -0.425
B34 | -1.26
B35 | -0.0526
B36 | -2.17
B37 | 0.29
B38 | 0.34
B39 | -0.619
B40 | -0.56
B41 | -0.475
B42 | -1.13
B43 | 0.157
B44 | -1.67
B45 | -1.17
B46 | -2.06
B47 | -0.763
B48 | -1.39
B49 | 0.365
B50 | -0.371
